# Results: paper PMC9911399, “Two distinct binding modes provide the RNA-binding protein RbFox with extraordinary sequence specificity”
# Substitutions are numbered along the chain they refer to; changes in the protein carry UniProt numbers. This is one part of the list.
# B1: AAAAGAA (DNA:RNA)
# RNA: GGGAGACCGGAAUUCAGAUUGUCCAAAAGAAUUAAAUCCCGUCGUAGCCACCA
# DNA 1: CAATCTGAATTCCGGTCTCCC
# DNA 2: TGGTGGCTACGACGGGATT
# B2: GGUACAU (DNA:RNA)
# RNA: B1 RNA with A25G, A26G, A27U, G29C, A31U
# DNA 1: CAATCTGAATTCCGGTCTCCC
# DNA 2: TGGTGGCTACGACGGGATT
# B3: CAAGGCU (DNA:RNA)
# RNA: B1 RNA with A25C, A28G, A30C, A31U
# DNA 1: CAATCTGAATTCCGGTCTCCC
# DNA 2: TGGTGGCTACGACGGGATT
# B4: UAGGGUC (DNA:RNA)
# RNA: B1 RNA with A25U, A27G, A28G, A30U, A31C
# DNA 1: CAATCTGAATTCCGGTCTCCC
# DNA 2: TGGTGGCTACGACGGGATT
# B5: GGCGGCU (DNA:RNA)
# RNA: B1 RNA with A25G, A26G, A27C, A28G, A30C, A31U
# DNA 1: CAATCTGAATTCCGGTCTCCC
# DNA 2: TGGTGGCTACGACGGGATT
# B6: GACAUCU (DNA:RNA)
# RNA: B1 RNA with A25G, A27C, G29U, A30C, A31U
# DNA 1: CAATCTGAATTCCGGTCTCCC
# DNA 2: TGGTGGCTACGACGGGATT
# B7: GAGGACC (DNA:RNA)
# RNA: B1 RNA with A25G, A27G, A28G, G29A, A30C, A31C
# DNA 1: CAATCTGAATTCCGGTCTCCC
# DNA 2: TGGTGGCTACGACGGGATT
# B8: AGGUCGA (DNA:RNA)
# RNA: B1 RNA with A26G, A27G, A28U, G29C, A30G
# DNA 1: CAATCTGAATTCCGGTCTCCC
# DNA 2: TGGTGGCTACGACGGGATT
# B9: CGUUGUC (DNA:RNA)
# RNA: B1 RNA with A25C, A26G, A27U, A28U, A30U, A31C
# DNA 1: CAATCTGAATTCCGGTCTCCC
# DNA 2: TGGTGGCTACGACGGGATT
# B10: AGCCGAA (DNA:RNA)
# RNA: B1 RNA with A26G, A27C, A28C
# DNA 1: CAATCTGAATTCCGGTCTCCC
# DNA 2: TGGTGGCTACGACGGGATT
# B11: UACAGGU (DNA:RNA)
# RNA: B1 RNA with A25U, A27C, A30G, A31U
# DNA 1: CAATCTGAATTCCGGTCTCCC
# DNA 2: TGGTGGCTACGACGGGATT
# B12: GACUCAG (DNA:RNA)
# RNA: B1 RNA with A25G, A27C, A28U, G29C, A31G
# DNA 1: CAATCTGAATTCCGGTCTCCC
# DNA 2: TGGTGGCTACGACGGGATT
# B13: ACAAAUU (DNA:RNA)
# RNA: B1 RNA with A26C, G29A, A30U, A31U
# DNA 1: CAATCTGAATTCCGGTCTCCC
# DNA 2: TGGTGGCTACGACGGGATT
# B14: AAACCCC (DNA:RNA)
# RNA: B1 RNA with A28C, G29C, A30C, A31C
# DNA 1: CAATCTGAATTCCGGTCTCCC
# DNA 2: TGGTGGCTACGACGGGATT
# B15: UAGGGAU (DNA:RNA)
# RNA: B1 RNA with A25U, A27G, A28G, A31U
# DNA 1: CAATCTGAATTCCGGTCTCCC
# DNA 2: TGGTGGCTACGACGGGATT
# B16: ACCGUAA (DNA:RNA)
# RNA: B1 RNA with A26C, A27C, A28G, G29U
# DNA 1: CAATCTGAATTCCGGTCTCCC
# DNA 2: TGGTGGCTACGACGGGATT
# B17: GCUUGAG (DNA:RNA)
# RNA: B1 RNA with A25G, A26C, A27U, A28U, A31G
# DNA 1: CAATCTGAATTCCGGTCTCCC
# DNA 2: TGGTGGCTACGACGGGATT
# B18: ACGAGUG (DNA:RNA)
# RNA: B1 RNA with A26C, A27G, A30U, A31G
# DNA 1: CAATCTGAATTCCGGTCTCCC
# DNA 2: TGGTGGCTACGACGGGATT
# B19: CUGAAAG (DNA:RNA)
# RNA: B1 RNA with A25C, A26U, A27G, G29A, A31G
# DNA 1: CAATCTGAATTCCGGTCTCCC
# DNA 2: TGGTGGCTACGACGGGATT
# B20: UAAUGGG (DNA:RNA)
# RNA: B1 RNA with A25U, A28U, A30G, A31G
# DNA 1: CAATCTGAATTCCGGTCTCCC
# DNA 2: TGGTGGCTACGACGGGATT
# B21: GAGCGUA (DNA:RNA)
# RNA: B1 RNA with A25G, A27G, A28C, A30U
# DNA 1: CAATCTGAATTCCGGTCTCCC
# DNA 2: TGGTGGCTACGACGGGATT
# B22: UCAAAGA (DNA:RNA)
# RNA: B1 RNA with A25U, A26C, G29A, A30G
# DNA 1: CAATCTGAATTCCGGTCTCCC
# DNA 2: TGGTGGCTACGACGGGATT
# B23: UUGUUCG (DNA:RNA)
# RNA: GGGAGACCGGAAUUCAGAUUGUCCUUGUUCGUUAAAUCCCGUCGUAGCCACCA
# DNA 1: CAATCTGAATTCCGGTCTCCC
# DNA 2: TGGTGGCTACGACGGGATT
# B24: GUUCCGC (DNA:RNA)
# RNA: B23 RNA with U25G, G27U, U28C, U29C, C30G, G31C
# DNA 1: CAATCTGAATTCCGGTCTCCC
# DNA 2: TGGTGGCTACGACGGGATT
# B25: GACGAGC (DNA:RNA)
# RNA: B1 RNA with A25G, A27C, A28G, G29A, A30G, A31C
# DNA 1: CAATCTGAATTCCGGTCTCCC
# DNA 2: TGGTGGCTACGACGGGATT
# B26: UGCACCU (DNA:RNA)
# RNA: B23 RNA with U26G, G27C, U28A, U29C, G31U
# DNA 1: CAATCTGAATTCCGGTCTCCC
# DNA 2: TGGTGGCTACGACGGGATT
# B27: CUUCGAG (DNA:RNA)
# RNA: B1 RNA with A25C, A26U, A27U, A28C, A31G
# DNA 1: CAATCTGAATTCCGGTCTCCC
# DNA 2: TGGTGGCTACGACGGGATT
# B28: CUCCGCU (DNA:RNA)
# RNA: B23 RNA with U25C, G27C, U28C, U29G, G31U
# DNA 1: CAATCTGAATTCCGGTCTCCC
# DNA 2: TGGTGGCTACGACGGGATT
# B29: AAUUCCG (DNA:RNA)
# RNA: B23 RNA with U25A, U26A, G27U, U29C
# DNA 1: CAATCTGAATTCCGGTCTCCC
# DNA 2: TGGTGGCTACGACGGGATT
# B30: UCGCCUU (DNA:RNA)
# RNA: B23 RNA with U26C, U28C, U29C, C30U, G31U
# DNA 1: CAATCTGAATTCCGGTCTCCC
# DNA 2: TGGTGGCTACGACGGGATT
# B31: CGCCGUG (DNA:RNA)
# RNA: B1 RNA with A25C, A26G, A27C, A28C, A30U, A31G
# DNA 1: CAATCTGAATTCCGGTCTCCC
# DNA 2: TGGTGGCTACGACGGGATT
# Target: T1, RBFOX1 RRM RbFoxmut (Fox-RRM*) (Homo sapiens, UniProt Q9NWB1 109-208, R118D;E147R;N151S;E152T)
# T1 sequence: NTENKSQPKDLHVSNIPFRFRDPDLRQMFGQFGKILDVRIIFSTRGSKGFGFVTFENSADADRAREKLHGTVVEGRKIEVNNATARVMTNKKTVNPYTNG
# Assay: EMSA; HiTS-Eq, 1 nM pool, 10 min; buffer printed only for the single-RNA assays: 10 mM Tris pH 7.5, 150 mM NaCl, 3.4 mM EDTA, 0.001% NP-40, 30 C
# Conditions: tags: His6 N-terminal (pET28a); label: 5' 32P
# Procedure, shortened: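 These values rest on relative association constants, computed from read-count changes of each RNA species versus the control reaction and normalised to the cognate motif. Reads came from free RNA recovered by 8% native PAGE after purified RbFox RRM (wild type or mutant) at increasing concentrations was equilibrated for 10 min in 50 µL with 1 nM of a 5′-radiolabelled pool with 7 randomized nucleotides and DNA-annealed flanks.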
row,Binder,binding signal
1,B1,0.0861 KA relative to UGCAUGU
2,B2,0.0796 KA relative to UGCAUGU
3,B3,0.0653 KA relative to UGCAUGU
4,B4,0.138 KA relative to UGCAUGU
5,B5,0.0834 KA relative to UGCAUGU
6,B6,0.0745 KA relative to UGCAUGU
7,B7,0.072 KA relative to UGCAUGU
8,B8,0.113 KA relative to UGCAUGU
9,B9,0.31 KA relative to UGCAUGU
10,B10,0.0891 KA relative to UGCAUGU
11,B11,0.107 KA relative to UGCAUGU
12,B12,0.0775 KA relative to UGCAUGU
13,B13,0.0857 KA relative to UGCAUGU
14,B14,0.0644 KA relative to UGCAUGU
15,B15,0.0944 KA relative to UGCAUGU
16,B16,0.117 KA relative to UGCAUGU

row,Binder,binding signal
1,B17,0.209 KA relative to UGCAUGU
2,B18,0.202 KA relative to UGCAUGU
3,B19,0.0652 KA relative to UGCAUGU
4,B20,0.0846 KA relative to UGCAUGU
5,B21,0.129 KA relative to UGCAUGU
6,B22,0.0703 KA relative to UGCAUGU
7,B23,0.463 KA relative to UGCAUGU
8,B24,0.113 KA relative to UGCAUGU
9,B25,0.083 KA relative to UGCAUGU
10,B26,0.169 KA relative to UGCAUGU
11,B27,0.113 KA relative to UGCAUGU
12,B28,0.0979 KA relative to UGCAUGU
13,B29,0.0878 KA relative to UGCAUGU
14,B30,0.0678 KA relative to UGCAUGU
15,B31,0.141 KA relative to UGCAUGU
